Experimental data published in the supplement of paper PMC10369915.
The list shows a part of the results. Cut-off read from the data, not from the text of the source: active = 3.2 or more and inactive = the rest. Most of these values are background signal.

Tests used:
Experiment in all cases: enrichment score (SH2-bound / input frequency) (ratio); bacterial display of known human phosphotyrosine sites (pTyr-Var adds point mutants) read by sequencing; higher = stronger binding; tyrosines were phosphorylated by kinases first
Settings in all cases: peptide library: pTyr-Var
SHP2 C-SH2 domain E139D = target: SHP2 C-SH2 domain E139D
[1] = target: SHP2 C-SH2 domain wild-type
SHP2 N-SH2 domain L43F = target: SHP2 N-SH2 domain L43F
SHP2 N-SH2 domain T42A = target: SHP2 N-SH2 domain T42A
SHP2 N-SH2 domain T52S = target: SHP2 N-SH2 domain T52S
[2] = target: SHP2 N-SH2 domain wild-type

Measured: enrichment score
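Note: displayed peptides selected on beads carrying the immobilized SH2 domain, with library peptides lacking any tyrosine serving as negative controls.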

EICTQYEAMAS [GFAP_Y242_R239C]
inactive: SHP2 C-SH2 domain E139D 0.808 | [1] 0.768 | SHP2 N-SH2 domain L43F 0.649 | SHP2 N-SH2 domain T42A 0.688 | SHP2 N-SH2 domain T52S 0.634 | [2] 0.512

IMNLLYHVVGW [GBA_Y412_T408M]
active: SHP2 C-SH2 domain E139D 4.2 | [1] 3.8 | SHP2 N-SH2 domain L43F 4.06 | SHP2 N-SH2 domain T42A 3.55 | SHP2 N-SH2 domain T52S 3.76 | [2] 3.59

VDGFVYKLHPS [GCK_Y413_S411F]
inactive: SHP2 C-SH2 domain E139D 0.657 | [1] 0.687 | SHP2 N-SH2 domain L43F 0.823 | SHP2 N-SH2 domain T42A 0.928 | SHP2 N-SH2 domain T52S 0.759 | [2] 0.852

CRWKRYQRSHD [GDPD5_Y30]
inactive: SHP2 C-SH2 domain E139D 0.253 | [1] 0.276 | SHP2 N-SH2 domain L43F 0.234 | SHP2 N-SH2 domain T42A 0.334 | SHP2 N-SH2 domain T52S 0.256 | [2] 0.243

VDGSVYELHPS [GCK_Y413_K414E]
inactive: SHP2 C-SH2 domain E139D 0.466 | [1] 0.525 | SHP2 N-SH2 domain L43F 0.648 | SHP2 N-SH2 domain T42A 0.557 | SHP2 N-SH2 domain T52S 0.755 | [2] 0.925

QRASDYFSQQM [GBP6_Y333_A331S_YF]
inactive: SHP2 C-SH2 domain E139D 0.97 | [1] 0.828 | SHP2 N-SH2 domain L43F 0.753 | SHP2 N-SH2 domain T42A 0.766 | SHP2 N-SH2 domain T52S 0.703 | [2] 1.12

TKDTFYKQPMF [GBA_Y451]
inactive: SHP2 C-SH2 domain E139D 0.994 | [1] 0.951 | SHP2 N-SH2 domain L43F 1.91 | SHP2 N-SH2 domain T52S 1.88 | [2] 0.92
active: SHP2 N-SH2 domain T42A 3.84

TKDTFYKQPMV [GBA_Y451_F456V]
inactive: SHP2 C-SH2 domain E139D 0.692 | [1] 0.929 | SHP2 N-SH2 domain L43F 0.837 | SHP2 N-SH2 domain T42A 0.609 | SHP2 N-SH2 domain T52S 0.588 | [2] 0.99

KVDKEYEVGVR [GHR_Y226_R229G]
inactive: SHP2 C-SH2 domain E139D 0.668 | [1] 0.572 | SHP2 N-SH2 domain L43F 0.689 | SHP2 N-SH2 domain T42A 0.606 | SHP2 N-SH2 domain T52S 0.551 | [2] 0.703

ENGPYYTSYPP [GDAP2_Y488]
inactive: SHP2 C-SH2 domain E139D 0.654 | [1] 0.508 | SHP2 N-SH2 domain L43F 0.486 | SHP2 N-SH2 domain T42A 0.488 | SHP2 N-SH2 domain T52S 0.43 | [2] 0.476

PIQLFYTRRNT [GHR_Y86]
inactive: SHP2 C-SH2 domain E139D 0.282 | [1] 0.278 | SHP2 N-SH2 domain L43F 0.247 | SHP2 N-SH2 domain T42A 0.293 | SHP2 N-SH2 domain T52S 0.292 | [2] 0.199

RAADFYSQQMA [GBP6_Y334_YF]
inactive: SHP2 C-SH2 domain E139D 0.669 | [1] 0.82 | SHP2 N-SH2 domain L43F 0.722 | SHP2 N-SH2 domain T42A 0.779 | SHP2 N-SH2 domain T52S 0.827 | [2] 0.989

TKHTFYKQPMF [GBA_Y451_D448H]
inactive: SHP2 C-SH2 domain E139D 1.23 | [1] 1.22 | SHP2 N-SH2 domain L43F 1.2 | SHP2 N-SH2 domain T42A 2.11 | SHP2 N-SH2 domain T52S 1.28 | [2] 1.19

RENGPYFASFP [GDAP2_Y487_T489A_YF]
inactive: SHP2 C-SH2 domain E139D 1.83 | [1] 0.907 | SHP2 N-SH2 domain L43F 0.759 | SHP2 N-SH2 domain T42A 0.81 | SHP2 N-SH2 domain T52S 0.881 | [2] 0.879

TKDTFYKQPVF [GBA_Y451_M455V]
inactive: SHP2 C-SH2 domain E139D 0.717 | [1] 0.787 | SHP2 N-SH2 domain L43F 1.57 | SHP2 N-SH2 domain T42A 2.56 | SHP2 N-SH2 domain T52S 1.36 | [2] 0.719

IGMSSYVMLAS [GGCX_Y301_F299S]
inactive: SHP2 C-SH2 domain E139D 1.24 | [1] 2.01 | SHP2 N-SH2 domain L43F 1.3 | SHP2 N-SH2 domain T52S 2.42 | [2] 1.26
active: SHP2 N-SH2 domain T42A 5.15

RHLQEYQDLLN [GFAP_Y349]
inactive: SHP2 C-SH2 domain E139D 0.877 | [1] 0.678 | SHP2 N-SH2 domain L43F 1.27 | SHP2 N-SH2 domain T42A 0.849 | SHP2 N-SH2 domain T52S 0.899 | [2] 0.907

KLADVYQAELR [GFAP_Y116]
inactive: SHP2 C-SH2 domain E139D 0.908 | [1] 0.782 | SHP2 N-SH2 domain L43F 0.895 | SHP2 N-SH2 domain T42A 0.715 | SHP2 N-SH2 domain T52S 0.782 | [2] 0.797

TKDTFHKQPMF [GBA_Y451_Y451H]
inactive: SHP2 C-SH2 domain E139D 0.958 | [1] 0.577 | SHP2 N-SH2 domain L43F 0.694 | SHP2 N-SH2 domain T42A 0.568 | SHP2 N-SH2 domain T52S 0.822 | [2] 0.786

RHLQEYQDPLN [GFAP_Y349_L352P]
inactive: SHP2 C-SH2 domain E139D 0.69 | [1] 0.728 | SHP2 N-SH2 domain L43F 0.711 | SHP2 N-SH2 domain T42A 0.647 | SHP2 N-SH2 domain T52S 0.574 | [2] 0.901

IGMFSYVMLAS [GGCX_Y301]
inactive: SHP2 C-SH2 domain E139D 0.628 | [1] 1.04 | SHP2 N-SH2 domain L43F 0.991 | SHP2 N-SH2 domain T42A 0.754 | SHP2 N-SH2 domain T52S 0.964 | [2] 0.995

NFFEFYVDDPP [GCHFR_Y48_YF]
inactive: SHP2 C-SH2 domain E139D 0.94 | [1] 1 | SHP2 N-SH2 domain L43F 1.28 | SHP2 N-SH2 domain T42A 0.989 | SHP2 N-SH2 domain T52S 1 | [2] 0.773

GISDEYHVIRR [GCDH_Y398_H403R]
inactive: SHP2 C-SH2 domain E139D 0.685 | [1] 0.783 | SHP2 N-SH2 domain L43F 0.723 | SHP2 N-SH2 domain T42A 0.817 | SHP2 N-SH2 domain T52S 0.709 | [2] 0.758

ETRWNYHFEVV [GCNT3_Y267_K266N]
inactive: SHP2 C-SH2 domain E139D 1.33 | [1] 1.31 | SHP2 N-SH2 domain L43F 0.882 | SHP2 N-SH2 domain T42A 1.08 | SHP2 N-SH2 domain T52S 0.887 | [2] 1.59

RIVEIYTRRLQ [GCH1_Y175_S176T]
inactive: SHP2 C-SH2 domain E139D 0.375 | [1] 0.346 | SHP2 N-SH2 domain L43F 0.318 | SHP2 N-SH2 domain T42A 0.393 | SHP2 N-SH2 domain T52S 0.303 | [2] 0.183

ITNVLYHVVGW [GBA_Y412_L410V]
inactive: SHP2 C-SH2 domain E139D 2.66 | [1] 2.74 | SHP2 N-SH2 domain L43F 2.48 | SHP2 N-SH2 domain T42A 2.68 | SHP2 N-SH2 domain T52S 2.47 | [2] 2.53

GISDEYHVIQH [GCDH_Y398_R402Q]
inactive: SHP2 C-SH2 domain E139D 0.692 | [1] 0.711 | SHP2 N-SH2 domain L43F 0.916 | SHP2 N-SH2 domain T42A 0.674 | SHP2 N-SH2 domain T52S 0.831 | [2] 0.965

QPGDIYHQTWA [GBA_Y244]
inactive: SHP2 C-SH2 domain E139D 0.71 | [1] 0.775 | SHP2 N-SH2 domain L43F 0.924 | SHP2 N-SH2 domain T42A 0.766 | SHP2 N-SH2 domain T52S 0.762 | [2] 0.936

RIVEIYSRSLQ [GCH1_Y175_R178S]
inactive: SHP2 C-SH2 domain E139D 0.804 | [1] 0.702 | SHP2 N-SH2 domain L43F 0.759 | SHP2 N-SH2 domain T42A 0.744 | SHP2 N-SH2 domain T52S 0.911 | [2] 0.846

PYYASYPPSPD [GDAP2_Y491_T489A]
inactive: SHP2 C-SH2 domain E139D 0.793 | [1] 0.664 | SHP2 N-SH2 domain L43F 0.688 | SHP2 N-SH2 domain T42A 0.623 | SHP2 N-SH2 domain T52S 0.623 | [2] 0.67

LSVMSYDLGMF [GBA3_Y174]
active: SHP2 N-SH2 domain L43F 8.02 | SHP2 N-SH2 domain T52S 9.88
inactive: SHP2 C-SH2 domain E139D 2.07 | [1] 1.83 | SHP2 N-SH2 domain T42A 2.08 | [2] 2.71

ITNLLYHVVGW [GBA_Y412]
inactive: SHP2 N-SH2 domain T42A 3.14
active: SHP2 C-SH2 domain E139D 3.7 | [1] 4.16 | SHP2 N-SH2 domain L43F 3.44 | SHP2 N-SH2 domain T52S 3.46 | [2] 3.37

EIPTQYEAMAS [GFAP_Y242_R239P]
inactive: SHP2 C-SH2 domain E139D 0.644 | [1] 0.675 | SHP2 N-SH2 domain L43F 0.719 | SHP2 N-SH2 domain T42A 0.652 | SHP2 N-SH2 domain T52S 0.653 | [2] 0.558

EVESPYEVHDY [GIGYF2_Y1168]
inactive: SHP2 C-SH2 domain E139D 0.452 | [1] 0.671 | SHP2 N-SH2 domain L43F 0.537 | SHP2 N-SH2 domain T42A 0.589 | SHP2 N-SH2 domain T52S 0.604 | [2] 0.691

NFFEFYVDDPL [GCHFR_Y48_P53L_YF]
inactive: SHP2 C-SH2 domain E139D 1.54 | [1] 1.24 | SHP2 N-SH2 domain L43F 1.13 | SHP2 N-SH2 domain T42A 1.18 | SHP2 N-SH2 domain T52S 1.07 | [2] 1.19

CRWKRYQCSHD [GDPD5_Y30_R32C]
inactive: SHP2 C-SH2 domain E139D 0.705 | [1] 0.708 | SHP2 N-SH2 domain L43F 0.591 | SHP2 N-SH2 domain T42A 0.765 | SHP2 N-SH2 domain T52S 0.692 | [2] 0.603

QRAADYYSQQM [GBP6_Y333]
inactive: SHP2 C-SH2 domain E139D 0.746 | [1] 0.663 | SHP2 N-SH2 domain L43F 0.693 | SHP2 N-SH2 domain T42A 0.564 | SHP2 N-SH2 domain T52S 0.521 | [2] 0.819
